This is one part of the list.
system: PfAP2-HC AP2 domain (GST-tagged); assay: gcPBM binding intensity (ln(normalized median fluorescence intensity)); higher = stronger DNA binding
How it was run: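 Binding intensity is defined as the maximum Masliner-normalised natural-log median intensity across replicate spots for either probe orientation. It was measured on an Agilent 4 × 180k array of primer-extended double-stranded 36-bp intergenic genomic probes and negative controls, to which GST-tagged P. falciparum DNA-binding domains made in E. coli were applied for 1 h in 1× PBS with 1% milk, 0.2 mg/ml BSA, 0.5% salmon testes DNA and 0.03% Triton X-100. Detection was by Alexa488 anti-GST antibody and scanning at 488 nm.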

| Sequence | gcPBM binding intensity (ln) |
| --- | --- |
| TTTTTCCATATTGTAGCATGCAGTATATATATCATG [TGCATGCA_site530] | 9.66 |
| CACTAATAGTGGATTACACACATATATATGTATATA [CACACA_site2531] | 9.75 |
| CGCGAAGTAGCATTCACACACAGCAAAATATATATA [CACACA_site3495] | 9.91 |
| ACTTACACATTTATTACACACATAAAGGAAAATTTT [CACACA_site1356] | 9.79 |
| ATATTTAAATGGATCACACATATATATATATATATA [CACACA_site5255] | 9.55 |
| TTAAAAAATAACAAGGTGCAAATAGGTTTATAAAAT | 10 |
| TTTTTAACATTTAAATGTACATGTTACAATTTAAAG [XGTACX_site8789] | 9.42 |
| TTTTTATTTTTATACATATAATATATTATGATTAAA [CACACA_negctrl_site214] | 9.41 |
| ACAGCATAATCATGCTGTACATTATTTTCTTAAGTA [XGTACX_site8456] | 9.37 |
| AGAGACTTAGAAAACACACATACATAAGATAATTTA [CACACA_site2377] | 9.99 |
| TGCAAAAAATTCCACACACACACACGCATATAAATA [CACACA_site6696] | 10.6 |
| TAAAATAAAAGTGAAACACACAGTATTTTACAACAT [CACACA_site3811] | 9.83 |
| AAAATAGCTGTATAGAGTACATATAAATAATGTTGT [XGTACX_site5692] | 9.75 |
| CATTTTTCTATATGTGCATGTAAGATAAGAATAATT [TGCATGCA_site107] | 9.37 |
| TCATATAATATTTATATGCACACTTTTCTATATATA [CACACA_site4075] | 9.91 |
| TTTCGTCATTTTGTTTTTAATTCTACAATTTAGTTA [XGTACX_negctrl_site286] | 9.66 |
| TTTTGAAGAAAATTCTTTTTTTTTTTTTTTTGTAAA [CACACA_negctrl_site102] | 9.03 |
| ATATAATGACAAGTATAAGTATCACAAAGAAATAAA [CACACA_negctrl_site1403] | 9.79 |
| CCACTTTTTGAAGACACACACAAAAAAAAAAAAAAA [CACACA_site2551] | 9.55 |
| CAAGCTTTTTCCTTTACACACATTAATTATATATAT [CACACA_site1423] | 9.96 |
| ATAACAATTATTTGTCGACACACGTATATGTTATTT [CACACA_site1766] | 10.1 |
| CAAAATAAAAAATTCACACACATATAAATATAAATA [CACACA_site7065] | 10.4 |
| AAAAAAAAAGGTACTACACACTATTATCAATAGAAA [CACACA_site91] | 9.79 |
| TACTTATTATGAAACACACACCAAAACTACAGAATA [CACACA_site6265] | 10.5 |
| ATATATATATGTATATGTACATATATATACACATAT [XGTACX_site140] | 9.85 |

Reference: the supplement of paper PMC11417369
